From patent publication US20030099983A1, “Cyclic and substituted immobilized molecular synthesis” (Affymetrix, Inc., priority 1991, published 2003)

Tested on: D32.39 antibody
Assay: Solution competition of free peptide against radiolabeled dynorphin B peptide for D32.39 antibody
Assay type: binding, mouse
Settings: free peptide in solution
Description: To confirm the interpretation of the observed fluorescence signals, peptides synthesized on a conventional solid phase peptide synthesizer were tested. The IC50 values for the competition of free peptide against radiolabeled dynorphin B peptide were determined and are tabulated in Table 3. There is a striking correlation between the rank ordering of the relative fluorescence intensity and the solution IC50 values.

Molecule | IC50
CC(C)C[C@H](NC(=O)[C@H](Cc1ccccc1)NC(=O)CNC(=O)CNC(=O)[C@@H](N)Cc1ccc(O)cc1)C(=O)N[C@@H](CCCNC(=N)N)C(=O)N[C@@H](CCCNC(=N)N)C(=O)N[C@@H](CCC(N)=O)C(=O)N[C@@H](Cc1ccccc1)C(=O)N[C@@H](CCCCN)C(=O)N[C@H](C(=O)N[C@H](C(=O)N[C@H](C(=O)O)[C@@H](C)O)C(C)C)C(C)C [reference compound] | 5.7 nM
Ac-QFKVVT-OH [Ac-QFKVVT-OH] | 3200 nM
Ac-RQFKVVT-NH2 [Ac-RQFKVVT-NH2] | 7.3 nM
Ac-RQFKVVT-OH [Ac-RQFKVVT-OH] | 11 nM
Ac-RRQFKVVT-OH | 3.9 nM
